Results: patent US20220348651A1, “ENTPD2 ANTIBODIES, COMBINATION THERAPIES, AND METHODS OF USING THE ANTIBODIES AND COMBINATION THERAPIES” (Novartis AG, priority 2019, published 2022)
Substitutions are numbered along the chain they refer to.

Columns and labels:
Human ENTPD1 = target: T1, Human ENTPD1 (Homo sapiens, UniProt P49961); experiment: Cross reactivity: FACS binding to human ENTPD1 expressing NIH/3T3 cells; conditions: NIH/3T3-ENTPD1 cells, 50 nM antibody
T1 construct: expressed in transfected cells; host or cells: NIH/3T3 (retroviral transduction, FACS-sorted)
T1 sequence (P49961 1-510): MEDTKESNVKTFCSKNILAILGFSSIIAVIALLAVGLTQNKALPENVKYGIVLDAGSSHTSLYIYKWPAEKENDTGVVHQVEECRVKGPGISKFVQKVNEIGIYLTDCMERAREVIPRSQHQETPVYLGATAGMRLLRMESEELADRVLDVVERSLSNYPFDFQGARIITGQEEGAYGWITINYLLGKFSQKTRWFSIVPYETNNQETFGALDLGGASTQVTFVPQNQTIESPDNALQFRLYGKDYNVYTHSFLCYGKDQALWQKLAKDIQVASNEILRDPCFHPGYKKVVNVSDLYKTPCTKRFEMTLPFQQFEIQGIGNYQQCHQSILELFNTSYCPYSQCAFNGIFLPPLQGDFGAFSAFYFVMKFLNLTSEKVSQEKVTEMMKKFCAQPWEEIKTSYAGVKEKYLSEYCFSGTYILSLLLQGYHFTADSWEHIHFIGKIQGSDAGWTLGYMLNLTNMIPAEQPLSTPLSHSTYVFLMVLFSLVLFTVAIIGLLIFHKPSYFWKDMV
Procedure: (§1) FACS screening: Specific binding of candidate antibodies to endogenously expressed ENTPD2 was assessed by flow cytometry. Cells were rinsed thoroughly with 1×PBS and treated with Accutase (Millipore #SCR005) to lift from growth plates and resuspended at approximately 1×10^5 cells/90 μL in 1× FACS buffer (2% FBS+0.1% NaN3 in PBS). In a 96-well U-bottom plate, 10 μL of 10× antibody solution in FACS buffer was pre-seeded and 90 μL of cell suspension was added. Cell were incubated for 30 minutes at 4° C., washed 1× with cold PBS and resuspended in 100 μL of 1:500 secondary antibody 1× FACS buffer (Allophycocyanin conjugated F(ab′)2 goat anti-human IgG, Fcγ specific; Jackson Immunoresearch, Cat#109-136-098). After additional incubation for 15 min at 4° C., cells were washed twice with PBS and resuspended in 100 μL of 1×FACS buffer with 4 μg/mL propidium iodide (Life Technologies, Cat#P3566). Geometric mean fluorescence intensity was calculated on live single cells using FlowJo software.
(§2) Cross reactivity Human ENTPD1 (NP_001767) expressing NIH/3T3 cells were generated using a retroviral transduction approach. 72 hrs post transduction, engineered cells were stained with the anti-Human CD39/ENTPD1 APC-conjugated Antibody (R&D systems, Minneapolis, Minn.) and live cells that expressed human ENTPD1 were separated from the rest of the population via fluorescence activated cell sorting. […]

H520 cells = experiment: Cross reactivity: FACS binding to H520 cells (ENTPD3 and ENTPD8 expression); parameters: species or system human; conditions: 50 nM antibody
Procedure: as §1
H520 cells were identified as a cancer cell line with ENTPD3 (Ct 25) and ENTPD8 (Ct 26) expression by Taqman and were used for selectivity screening.

NIH/3T3 cells = experiment: Cross reactivity: FACS binding to NIH/3T3 control cells; conditions: 50 nM antibody
Procedure: as §1, §2

Measured: Apparent FACS binding at 50 nM

B1: ANTI-HUMAN ENTPD2 MAB4 (antibody)
heavy: QIQLQESGPGLVKPSQTLSLTCTVSGYSITSGYYWNWIRQHPGKGLEWIGYISYDADNNYNPSLKNRVTISRDTSKNQFSLKLSSVTAADTAVYYCAGGYYRYGLGSYRGSYYYVMDYWGQGTTVTVSSASTKGPSVFPLAPSSKSTSGGTAALGCLVKDYFPEPVTVSWNSGALTSGVHTFPAVLQSSGLYSLSSVVTVPSSSLGTQTYICNVNHKPSNTKVDKRV[here human IgG1 Fc without letters]
light: ETVLTQSPATLSVSPGERATISCKASQSVDYEGHSYMNWYQQKPGQAPRLLIYAASNLESGIPARFSGSGSGTDFTLTISSVEPEDAATYYCQQSNEDPPTFGGGTKLEIKRTVAAPSVFIFPPSDEQLKSGTASVVCLLNNFYPREAKVQWKVDNALQSGNSQESVTEQDSKDSTYSLSSTLTLSKADYEKHKVYACEVTHQGLSSPVTKSFNRGEC
No binding: all assays above

B2: ANTI-HUMAN ENTPD2 MAB5 (antibody)
heavy: B1 heavy
light: B1 light with E32D, H34N
No binding: all assays above
